Results as given in the RNAGym collection of RNA variant scans (doi:10.1101/gad.245936.114).
Variants at the background level are over-represented here.

B1: tRNA (parent)
chain: CUCUCGGUAGCCAAGUUGGUUUAAGGCGCAAGACUUUAAUUUAUCACUACGAAAUCUUGAGAUCGGGCGUUCGACUCGCCCCCGGGAGAUUUUUUCCUCGAGCAA

Variants of: B1
Assay: nonsense suppression (GFP-seq) (ratio to wild type); higher = more function; SUP4oc tRNA, yeast GFP reporter sort-seq
In short: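 To measure nonsense suppression, tRNA variants from a library carrying ~3% random mutations were integrated into the yeast genome alongside RFP and a GFP ochre reporter under galactose control. Growth took place in raffinose/galactose medium supplemented with 80 mg/L adenine, followed by sorting into GFP/RFP bins and Illumina sequencing of each bin (phred ≥30). For each variant with ≥100 reads and ≥30 cells, the bin median GFP/RFP values were weighted by its estimated cell share per bin and referenced to the unmutated parent tRNA.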

Nonsense suppression, ≤ 0.026:
C11G A23G G28C U57G A89U
G10U G25A U55A
C11G G15U C56A
C11U A89C
C11G C12A A13C C29A U55C G61C C75G
C11G C34A A62G G65U
C11G G88A A89U
C11U G61C A62U
C11G A31U
C11G C77A
C11U A14C U63G C77A
C11G U17C
C11A U70C
C11U G19U A23U C83U
C11U G26C G67U
C11G G28C
C11G A30U U63C
C11A U76G G88C
C11U U16C C56G C82G C83A
C11A A14U G66A G73C
C11G U16G A24G C56A A60G G86U
C11U A23G A31G U76A
G10U G18C C29G G86A
C11U A74U
C11G G26U C34G G66C
C11U A23C
G10U G15A G18A U71G A74U
C11G A31G A33G C34U C75A
C11G G15A A23G A87G
C11U A13G U22A C80U
G10U U70C C82G
C11U A23C G25A C80U
C11U U55G
G10U G84A G86U
G10U U16G A24C
C11U G59U A62C U71C
C11A U17C G28A U76G G86A
C11G A23G U58A
C11U A14C G18U U63G
C11A C29U
C11U G18C U20G U76G
C11G G25U C27G
C11U U17A C34G A60G
C11U A24G C27A
C11U C29A
C11U G28U G59A A60C G85C
C11U U17G
C11G A13C C80U
C11A U58A G69A
C11G A23U G28C
C11A U21G G88A
C11A U17C C72A
C11U A14C U17G C83A
C11A G19U G78A A89G
C11U A24G C72G C79U A87C
G10U G15C G59A C80A
G10U G28C U35A C64U
G10U U57A A60C
C11G U70C G85C
C11U G15U A24U A89C
C11G U57G G59C A87U
C11U A23C C27A
C11U G61A
G10U G61C U76G C82U
C11U G26A A60G U71G
C11U A31G C77G
C11A U20C
C11A U20A
C11G U63A G73C G84A
C11A U22C C83U
C11U A13C A23C
G10U G18U C56G
C11A G18C G59C U70C C81G
G10U U57A G65C
C11A A31U C64U G78A
C11G G15A U16A U76G C82U A89C
C11G A24C G26C
C11G U16G U63G
C11G G19C A24G A74G A87G
C11G A62U C64A
C11A U17G A30C
C11A G84C G86C
C11U G59U
C11A U21C U22G G32C
